{"source": "paper PMC12529666", "note": "This is one part of the list. At the low end of the ranking the order means little."}
{"target": "AGO2 WT (phosphosite mutant background) S387D + S824A + S828D + S831D + S834A (UniProt Q9UKV8)", "assay": "RNA Bind-n-Seq (nitrocellulose filter binding and sequencing)", "conditions": "constant regions annealed to DNA blockers; guide miR-122 5' phosphate; 30 mM Tris pH 8.0, 100 mM potassium acetate, 2 mM magnesium acetate, 0.5 mM TCEP, 0.005% NP-40, 0.01 mg/ml yeast tRNA; 3 nM AGO2-miR-122, 100 nM RNA library …; high values mean tight binding"}
{"sequence": "GAGUUCUACAGUCCGACGAUCCCAACGUGUUCCACACCUGGAAUUCUCGGGUGCCAA / UGGAGUGUGACAAUGGUGUUUG / GATCGTCGGACTGTAGAACTC / TTGGCACCCGAGAATTCCA", "binding signal (fold enrichment over input)": 0.112}
{"sequence": "GAGUUCUACAGUCCGACGAUCCCAACAUGUUCCACACCUGGAAUUCUCGGGUGCCAA / UGGAGUGUGACAAUGGUGUUUG / GATCGTCGGACTGTAGAACTC / TTGGCACCCGAGAATTCCA", "binding signal (fold enrichment over input)": 0.148}
{"sequence": "GAGUUCUACAGUCCGACGAUCCCAACGCACCCCACACCUGGAAUUCUCGGGUGCCAA / UGGAGUGUGACAAUGGUGUUUG / GATCGTCGGACTGTAGAACTC / TTGGCACCCGAGAATTCCA", "binding signal (fold enrichment over input)": 0.164}
{"sequence": "GAGUUCUACAGUCCGACGAUCCCAACGCAUUUUACACCUGGAAUUCUCGGGUGCCAA / UGGAGUGUGACAAUGGUGUUUG / GATCGTCGGACTGTAGAACTC / TTGGCACCCGAGAATTCCA", "binding signal (fold enrichment over input)": 0.119}
{"sequence": "GAGUUCUACAGUCCGACGAUCCCAACACGUUCUACACCUGGAAUUCUCGGGUGCCAA / UGGAGUGUGACAAUGGUGUUUG / GATCGTCGGACTGTAGAACTC / TTGGCACCCGAGAATTCCA", "binding signal (fold enrichment over input)": 0.0986}
{"sequence": "GAGUUCUACAGUCCGACGAUCCCAACAUGUCCCACACCUGGAAUUCUCGGGUGCCAA / UGGAGUGUGACAAUGGUGUUUG / GATCGTCGGACTGTAGAACTC / TTGGCACCCGAGAATTCCA", "binding signal (fold enrichment over input)": 0.155}
{"sequence": "GAGUUCUACAGUCCGACGAUCCCAACACACUUUACACCUGGAAUUCUCGGGUGCCAA / UGGAGUGUGACAAUGGUGUUUG / GATCGTCGGACTGTAGAACTC / TTGGCACCCGAGAATTCCA", "binding signal (fold enrichment over input)": 0.133}
{"sequence": "GAGUUCUACAGUCCGACGAUCCCAACACACCCUGCACCUGGAAUUCUCGGGUGCCAA / UGGAGUGUGACAAUGGUGUUUG / GATCGTCGGACTGTAGAACTC / TTGGCACCCGAGAATTCCA", "binding signal (fold enrichment over input)": 0.115}
{"sequence": "GAGUUCUACAGUCCGACGAUCCCAACGUGCUCCACACCUGGAAUUCUCGGGUGCCAA / UGGAGUGUGACAAUGGUGUUUG / GATCGTCGGACTGTAGAACTC / TTGGCACCCGAGAATTCCA", "binding signal (fold enrichment over input)": 0.17}
{"sequence": "GAGUUCUACAGUCCGACGAUCCCAACACGCUUCACACCUGGAAUUCUCGGGUGCCAA / UGGAGUGUGACAAUGGUGUUUG / GATCGTCGGACTGTAGAACTC / TTGGCACCCGAGAATTCCA", "binding signal (fold enrichment over input)": 0.133}
{"sequence": "GAGUUCUACAGUCCGACGAUCCCAACGCGUUCCACACCUGGAAUUCUCGGGUGCCAA / UGGAGUGUGACAAUGGUGUUUG / GATCGTCGGACTGTAGAACTC / TTGGCACCCGAGAATTCCA", "binding signal (fold enrichment over input)": 0.119}
{"sequence": "GAGUUCUACAGUCCGACGAUCCCAACGCGCUUCACACCUGGAAUUCUCGGGUGCCAA / UGGAGUGUGACAAUGGUGUUUG / GATCGTCGGACTGTAGAACTC / TTGGCACCCGAGAATTCCA", "binding signal (fold enrichment over input)": 0.123}
{"sequence": "GAGUUCUACAGUCCGACGAUCCCAACACAUUCCGCACCUGGAAUUCUCGGGUGCCAA / UGGAGUGUGACAAUGGUGUUUG / GATCGTCGGACTGTAGAACTC / TTGGCACCCGAGAATTCCA", "binding signal (fold enrichment over input)": 0.0998}
{"sequence": "GAGUUCUACAGUCCGACGAUCCCAACGCACCUCACACCUGGAAUUCUCGGGUGCCAA / UGGAGUGUGACAAUGGUGUUUG / GATCGTCGGACTGTAGAACTC / TTGGCACCCGAGAATTCCA", "binding signal (fold enrichment over input)": 0.17}
{"sequence": "GAGUUCUACAGUCCGACGAUCCCAACGUACUCCACACCUGGAAUUCUCGGGUGCCAA / UGGAGUGUGACAAUGGUGUUUG / GATCGTCGGACTGTAGAACTC / TTGGCACCCGAGAATTCCA", "binding signal (fold enrichment over input)": 0.714}
{"sequence": "GAGUUCUACAGUCCGACGAUCCCAACGCAUCUCACACCUGGAAUUCUCGGGUGCCAA / UGGAGUGUGACAAUGGUGUUUG / GATCGTCGGACTGTAGAACTC / TTGGCACCCGAGAATTCCA", "binding signal (fold enrichment over input)": 0.126}
{"sequence": "GAGUUCUACAGUCCGACGAUCCCAACGUGCCCCACACCUGGAAUUCUCGGGUGCCAA / UGGAGUGUGACAAUGGUGUUUG / GATCGTCGGACTGTAGAACTC / TTGGCACCCGAGAATTCCA", "binding signal (fold enrichment over input)": 0.123}
{"sequence": "GAGUUCUACAGUCCGACGAUCCCAACGCGUCCCACACCUGGAAUUCUCGGGUGCCAA / UGGAGUGUGACAAUGGUGUUUG / GATCGTCGGACTGTAGAACTC / TTGGCACCCGAGAATTCCA", "binding signal (fold enrichment over input)": 0.126}
{"sequence": "GAGUUCUACAGUCCGACGAUCCCAACGUACUUCACACCUGGAAUUCUCGGGUGCCAA / UGGAGUGUGACAAUGGUGUUUG / GATCGTCGGACTGTAGAACTC / TTGGCACCCGAGAATTCCA", "binding signal (fold enrichment over input)": 0.125}
